Measurements: PubChem BioAssay AID485297 (National Center for Advancing Translational Sciences (NCATS), 2010)
Out of some 320,000 compounds screened, about 9,100 (2.8%) were called active. This list was built around the results that the source calls inconclusive (neither active nor inactive); the mix of calls is not that of the screen. The call rests on the fitted dose curve; in most records, active means well fitted activation curve with a large enough effect; inconclusive means small, poorly fitted or top-dose-only effect; inactive means no such curve, though single readings can be large or run the other way. No potency is given beside an inconclusive call; the fits are too rough.

assay: qHTS Assay for Rab9 Promoter Activators; settings: Huh7 Rab9 promoter-luciferase reporter, luminescence, 24 h; series mostly up to 9.22 µM; further: nearly all actives have a fitted effect of over 60% in size
Summary of the method: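 Luminescence from Amplite-detected luciferase (10 minutes, ambient) reports Rab9 promoter activation. Before that, stable Rab9-luciferase Huh7 cells (1500/well, reduced-serum OP-MEM I plus 10% FBS) were exposed to compound for 24 hours at 37C.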
Potency means the concentration at half of the fitted maximal effect; tags describe the fitted curve by direction and shape.

Structure (SMILES) | Potency
COc1ccc2nc(C)c(C(=O)OCCN(C)C)cc2c1 | inactive
O=C(N=Nc1c(O)[nH]c2ccccc12)c1ccco1 | active: 2 µM
Cc1nc(SCC(=O)c2cccs2)c2oc3ccccc3c2n1 | active: 3.98 µM
O=C(Nc1ccccc1F)c1ccc(-c2cccc([N+](=O)[O-])c2)o1 | inconclusive [activator, single point]
N/C(=N\OC(=O)c1cccs1)c1ccccc1 | inconclusive [activator, single point]
O=c1c(Cl)c(Nc2cccc(Cl)c2)cnn1-c1nc2ccccc2s1 | inconclusive [activator, single point]
COc1ccc(OCc2cc(C(=O)N3CCCC(OC)C3)no2)c2ccccc12 (stereo not given) | inconclusive [activator, partial curve]
Cc1cc(NC2CCCC2)n2ncc(-c3ccccc3)c2n1 | inconclusive [activator, full curve]
COc1ccc(S(=O)(=O)NCC(c2ccc(F)cc2)N2CCN(C)CC2)cc1 (stereo not given) | inactive
Fc1ccc(/C=N/Nc2nc(-c3cccnc3)nc3ccccc23)cc1 | inconclusive [activator, single point]
CCOC(=O)c1ccc(CC(=O)c2ccc(O)cc2O)o1 | inactive
CN=C1S/C(=C/c2cn(CC(=O)OC)c3ccccc23)C(=O)N1C | inactive
C(=C\c1ccccc1)/CSc1ccccn1 | active: 3.55 µM
O=c1cc(-c2ccc(O)cc2)oc2ccc(O)cc12 | active: 3.55 µM
CC(O)c1nc2ccccc2n1Cc1nnc(-c2ccc(Cl)cc2)o1 (stereo not given) | inactive
Cc1ncc(CO)c2c1Oc1nc(-c3ccccc3)nc(SCC(=O)N(C)c3ccccc3)c1C2 | inactive
COC(=O)c1ccc(NC(=O)COc2cccc(-n3cnnn3)c2)cc1 | inactive
COc1ccc(NC(=O)C2C(=O)N(CCO)C3(C)CC2c2ccccc2O3)cc1 (stereo not given) | inconclusive [activator, partial curve]
COc1cccc2cc(C(=O)c3ccc([N+](=O)[O-])cc3)oc12 | inconclusive [activator, partial curve]
CCN1C(=S)SC(=O)C1=C1C=C(C)N(Cc2ccco2)C(C)=C1 | active: 0.631 µM
O=C1c2sc3nc4n(c(=O)c3c2CCC1Br)CCCCC4 (stereo not given) | inconclusive [activator, single point]
COc1ccc(C(=O)N=c2sccn2C)cc1 | inconclusive [activator, partial curve]
CC(=O)N1N=C(c2ccc(C)cc2)CC1c1ccc2c(c1)OCO2 (stereo not given) | inconclusive [activator, partial curve]
c1ccc2c(c1)CCc1c(-c3ccncc3)n[nH]c1-2 | inactive
Cc1ccc(NC(=O)CN2C(=O)S/C(=C\c3cc(Cl)c(OCC(=O)O)c(Cl)c3)C2=O)cc1 | inactive
COCCCNC(=S)N/N=C/c1ccc(O)cc1O | inactive
COc1ccc(NC(=S)NC(=O)c2ccccc2Cl)cc1 | inconclusive [activator, partial curve]

Structure (SMILES) | Potency
COC1=C(Nc2ccc(C)cc2)C(=O)c2ccccc2C1=O | inconclusive [activator, single point]
COc1ccc(CSc2nc3ccccc3[nH]2)cc1 | active: 0.501 µM
Cc1csc(-c2coc3cc(O)cc(C)c3c2=O)n1 | inconclusive [activator, partial curve]
CC(C)c1cc(C(=O)Nc2cc(Br)ccc2O)no1 | inconclusive [activator, single point]
COc1cccc(NC(=O)C(=O)NCC2CCCN2S(=O)(=O)c2ccccc2)c1 (stereo not given) | inconclusive [activator, single point]
Cc1ccc2nc(NC(=O)c3cccs3)sc2c1 | inconclusive [activator, full curve, poor fit]
CCCCOC(=O)Nc1ccc(C(=O)OC)cc1 | inconclusive [activator, partial curve]
Cc1cccc(-c2nsc(SCC(=O)NCC3CCCO3)n2)c1 (stereo not given) | inconclusive [activator, single point]
Cc1ccc(/C=N/Nc2nc3ccccc3s2)o1 | inconclusive [activator, single point]
COc1cccc(-c2nc(-c3ccc(NC(=O)Cc4ccccc4OC)cc3)no2)c1 | inactive
Cc1ccc(-c2csc(Nc3ccccn3)n2)cc1 | active: 1 µM
O=C(/C=C/c1cccc([N+](=O)[O-])c1)Nc1ccc(Cl)cn1 | inconclusive [activator, partial curve]
COC(=O)CCC(=O)NNC(=O)C1CC1(c1ccccc1)c1ccccc1 (stereo not given) | inactive
O=C(NCCc1ccccc1)/C(=N\O)c1ccccc1 | active: 3.98 µM
CCCCNc1ccc(C(=O)O)cc1 | inconclusive [activator, single point]
COc1cccc(C(=O)NCC(=O)N2CCC(C)CC2)c1 | inconclusive [activator, single point]
O=C(Nc1ccccc1O)c1ccc(C(=O)c2ccccc2)o1 | inconclusive [activator, single point]
Cc1cccc(NC(=O)C(=O)NCc2ccccn2)c1 | inconclusive [activator, partial curve]
CC(C)CC(=O)NC1(C(F)(F)F)C(=O)N(CC(C)C)C2=C1C(=O)CC(C)(C)C2 (stereo not given) | inactive
COc1ccc(-c2csc(Nc3ncccc3C)n2)cc1 | active: 1.58 µM
CCc1ccc(NC(=O)c2cc(C)on2)cc1 | active: 0.891 µM
Cc1nnc2sc(-c3ccc(N(C)C)cc3)nn2c1=O | inconclusive [activator, single point]
CC(=O)N(CN1C(=O)c2ccccc2C1=O)c1cccc(C)c1 | inactive
COc1ccc(/C=C/C(=O)CCC(=O)O)cc1 | active: 2.82 µM
O=C(Nc1nc(-c2ccccn2)cs1)C1CCCC1 | inconclusive [activator, partial curve]
Cc1nnc(NC(=O)c2ccc3ccccc3n2)s1 | active: 3.55 µM
CN(C)Cc1c(-c2ccc(Cl)cc2)nc2ccccn12 | inconclusive [activator, single point]

Structure (SMILES) | Potency
CC(NC(=O)CSc1ncn[nH]1)c1ccc(Cl)cc1Cl (stereo not given) | inactive
Cc1ccc(-c2noc(C3CCCN(C(=O)c4ccccc4Br)C3)n2)o1 (stereo not given) | inconclusive [activator, partial curve]
O=C(CSc1ncnc2ccccc12)c1ccc2c(c1)OCCO2 | active: 2.82 µM
Cc1ccc(SCc2nc(-c3ccccn3)no2)cc1 | inconclusive [activator, single point]
O=C(CCC1CCCCC1)Nc1ccccc1O | inconclusive [activator, single point]
O=C(/C=C/c1ccc(Cl)cc1)N1CCOCC1 | inconclusive [activator, single point]
COc1cccc(N2CCN(C(=O)c3ccccc3SCC(=O)NCc3ccco3)CC2)c1 | inactive
COc1ccc(Cn2c(O)c(C=Nc3ccc(O)cc3)c3ccccc3c2=O)cc1 | inactive
COC(=O)CNS(=O)(=O)c1ccc(Cc2ccc(S(=O)(=O)NCC(=O)OC)cc2)cc1 | active: 1.26 µM
N#Cc1cc(-c2ccccc2)nn1-c1ccccc1 | inactive
COc1ccc(/C=C2\SC(=O)N(CCNC(=O)C3CC4C=CC3C4)C2=O)cc1 (stereo not given) | active: 0.708 µM
CCOC(=O)c1ccc(NC(=O)Oc2cc(C)c(Cl)cc2C(C)C)cc1 | active: 4.47 µM
Cc1cccc(N/C=C/C(=O)c2cccs2)c1C | inconclusive [activator, partial curve]
Cn1c(C(=O)NC2CCCCC2)cc2c(=O)n3ccccc3nc21 | inconclusive [activator, single point]
NS(=O)(=O)c1ccc(CNc2ccc3ccccc3n2)cc1 | inconclusive [activator, partial curve]
CC(C)c1cccc(C(C)C)c1NC(=O)c1ccccc1 | inactive
Cc1cc(C(=O)CN2C(=O)NC(C)(c3ccccc3)C2=O)c(C)n1CC1CCCO1 (stereo not given) | inactive
C/C(=N\Nc1nc2ccccc2[nH]1)c1ccc(C)o1 | inconclusive [activator, single point]
COc1cc(OC)c(OC)cc1/C=C1\CC(C)C/C(=C\c2cc(OC)c(OC)cc2OC)C1=O (stereo not given) | inactive
COc1ccc(NC(=O)c2ccc(NCCN3C(=O)CCC3=O)c([N+](=O)[O-])c2)cc1 | inactive
c1ccc2c(-c3nc(-c4ccncc4)no3)cccc2c1 | inconclusive [activator, single point]
CC1CCN(c2oc(-c3cccc4ccccc34)nc2C#N)CC1 | inconclusive [activator, partial curve]
Nc1ccc2nc(SCc3ccccc3F)sc2c1 | inconclusive [activator, partial curve]
Cc1sc(N/N=C/c2cccs2)nc1-c1ccccc1 | inconclusive [activator, partial curve]
O=C(Nc1ccc(C(F)(F)F)cc1)c1cc(S(=O)(=O)NCC2COc3ccccc3O2)ccc1F (stereo not given) | inactive
Cc1ccc(NC(=O)C2CCCN(c3ncccn3)C2)c(C)c1 (stereo not given) | inconclusive [activator, single point]
